Data taken from the supplement of paper PMC4604168 (melanoma cell lines).
This is one part of the list. Many values rest on one well or one pass, so single values are uncertain.

Columns and labels:
Experiment in all cases: cell count relative to DMSO control; melanoma cells; higher = more viable cells
Conditions in all cases: library dose: standard library concentration; 72 h
SkMel28 = test system: SkMel28
SkMel2 = test system: SkMel2
SkMel30 = test system: SkMel30
SkMel5 = test system: SkMel5
UACC257 = test system: UACC257
UACC62 = test system: UACC62
WM115 = test system: WM115
WM1716 = test system: WM1716
WM1745 = test system: WM1745
WM3526 = test system: WM3526
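Also: cells treated in 1,536-well plates, then fixed and DAPI-stained, with nuclei counted from automated high-throughput microscope images.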

Compound	cell count (SkMel28)	cell count (SkMel2)	cell count (SkMel30)	cell count (SkMel5)	cell count (UACC257)	cell count (UACC62)	cell count (WM115)	cell count (WM1716)	cell count (WM1745)	cell count (WM3526)
O=C(/C=C/c1cccnc1)NCCCCC1CCN(C(=O)c2ccccc2)CC1 + Cc1ccc(Nc2nccc(N(C)c3ccc4c(C)n(C)nc4c3)n2)cc1S(N)(=O)=O [Pazopanib] (first compound 0.05 µM, partner dose 2 µM)	40.2%	7.37%	75.3%	91%	88.8%	62.2%	91.9%	76.5%	114%	85.1%
CC1(C)CCC(c2ccc(Cl)cc2)=C(CN2CCN(c3ccc(C(=O)NS(=O)(=O)c4ccc(N[C@H](CCN5CCOCC5)CSc5ccccc5)c(S(=O)(=O)C(F)(F)F)c4)cc3)CC2)C1 + CC(C)C[C@H](NC(=O)[C@H](Cc1ccccc1)NC(=O)c1cnccn1)B(O)O [Bortezomib] (first compound 2 µM, partner dose 0.005 µM)	14.1%	23%	9.44%	25.1%	44.1%	42.5%	9.89%	11.2%	6.34%	11.6%
Cc1ccc(Nc2nccc(N(C)c3ccc4c(C)n(C)nc4c3)n2)cc1S(N)(=O)=O [Pazopanib] + C[C@]1(O)C[C@@H](c2nc(-c3ccc4ccc(-c5ccccc5)nc4c3)c3c(N)nccn32)C1 [OSI906] (first compound 2 µM, partner dose 2 µM)	65.5%	93%	69.7%	64.5%	83%	87.8%	93%	82.8%	67.7%	69.6%
Cc1ccc(Nc2nccc(N(C)c3ccc4c(C)n(C)nc4c3)n2)cc1S(N)(=O)=O [Pazopanib] + O=C(O)[C@@H]1[O][Sb](=[O])([O][Sb]2(=[O])[O][C@H]([C@H](O)CO)[C@H](O)[C@H](C(=O)O)[O]2)[O][C@H]([C@H](O)CO)[C@@H]1O [stibogluconate] (first compound 2 µM, partner dose 10 µM)	94.9%	95.8%	79.6%	94%	93.2%	106%	96%	82.9%	83.4%	79.1%
O=C(/C=C/c1cccnc1)NCCCCC1CCN(C(=O)c2ccccc2)CC1 + CN(c1ncccc1CNc1nc(Nc2ccc3c(c2)CC(=O)N3)ncc1C(F)(F)F)S(C)(=O)=O [PF562271] (first compound 0.05 µM, partner dose 0.4 µM)	78.2%	11%	114%	86%	82.4%	57.7%	74.2%	55.5%	80.8%	106%
Cc1ccc(Nc2nccc(N(C)c3ccc4c(C)n(C)nc4c3)n2)cc1S(N)(=O)=O [Pazopanib] + CS(=O)(=O)c1ccc(C(=O)Nc2ccc(Cl)c(-c3ccccn3)c2)c(Cl)c1 [vismodegib] (first compound 2 µM, partner dose 5 µM)	78.4%	108%	90.4%	104%	86.7%	80.8%	103%	102%	108%	93.7%
O=C(/C=C/c1cccnc1)NCCCCC1CCN(C(=O)c2ccccc2)CC1 + Cc1nc(Nc2ncc(C(=O)Nc3c(C)cccc3Cl)s2)cc(N2CCN(CCO)CC2)n1 [dasatanib] (first compound 0.05 µM, partner dose 0.02 µM)	62.7%	11.3%	89.5%	70%	92.6%	81.6%	50%	49.8%	59.7%	82.8%
O=C(/C=C/c1cccnc1)NCCCCC1CCN(C(=O)c2ccccc2)CC1 + C[C@]1(c2nc3c(C(N)=O)cccc3[nH]2)CCCN1 [Veliparib] (first compound 0.05 µM, partner dose 7 µM)	78.1%	45.4%	111%	91.2%	90.8%	62.4%	45.7%	90.2%	88.8%	126%
Cc1ccc(Nc2nccc(N(C)c3ccc4c(C)n(C)nc4c3)n2)cc1S(N)(=O)=O [Pazopanib] + CC(=O)O[C@@]12CO[C@@H]1C[C@H](O)[C@@]1(C)C(=O)[C@H](O)C3=C(C)[C@@H](OC(=O)[C@H](O)[C@@H](NC(=O)OC(C)(C)C)c4ccccc4)C[C@@](O)([C@@H](OC(=O)c4ccccc4)[C@H]21)C3(C)C [Docetaxel] (first compound 2 µM, partner dose 0.0005 µM)	16.6%	26.7%	44%	35.3%	58.8%	57.1%	34.4%	30.9%	28.4%	37.8%
Cc1ccc(Nc2nccc(N(C)c3ccc4c(C)n(C)nc4c3)n2)cc1S(N)(=O)=O [Pazopanib] + Clc1ccc(Nc2nnc(Cc3ccncc3)c3ccccc23)cc1 [vatalanib] (first compound 2 µM, partner dose 10 µM)	85.2%	81%	67.1%	62.2%	69.9%	61.7%	86.5%	76.3%	77.4%	72.9%
CC1(C)CCC(c2ccc(Cl)cc2)=C(CN2CCN(c3ccc(C(=O)NS(=O)(=O)c4ccc(N[C@H](CCN5CCOCC5)CSc5ccccc5)c(S(=O)(=O)C(F)(F)F)c4)cc3)CC2)C1 + CN1CCN(c2ccc3nc(-c4c(N)c5c(F)cccc5[nH]c4=O)[nH]c3c2)CC1 [Dovitinib] (first compound 2 µM, partner dose 0.5 µM)	24.1%	42.6%	38.5%	45.4%	42%	36.7%	22.2%	44.6%	13.5%	60.5%
CC1(C)CCC(c2ccc(Cl)cc2)=C(CN2CCN(c3ccc(C(=O)NS(=O)(=O)c4ccc(N[C@H](CCN5CCOCC5)CSc5ccccc5)c(S(=O)(=O)C(F)(F)F)c4)cc3)CC2)C1 + Cn1c(Nc2ccc(C(F)(F)F)cc2)nc2cc(Oc3ccnc(-c4ncc(C(F)(F)F)[nH]4)c3)ccc21 [CHIR265] (first compound 2 µM, partner dose 0.4 µM)	4.37%	17.9%	34.6%	27%	26.6%	39.9%	10.6%	37.7%	8.12%	16.3%
O=C(/C=C/c1cccnc1)NCCCCC1CCN(C(=O)c2ccccc2)CC1 + CC(=O)O[C@@]12CO[C@@H]1C[C@H](O)[C@@]1(C)C(=O)[C@H](O)C3=C(C)[C@@H](OC(=O)[C@H](O)[C@@H](NC(=O)OC(C)(C)C)c4ccccc4)C[C@@](O)([C@@H](OC(=O)c4ccccc4)[C@H]21)C3(C)C [Docetaxel] (first compound 0.05 µM, partner dose 0.0005 µM)	16%	18.5%	44.4%	34.6%	65.6%	45.4%	35.2%	38.3%	34.8%	37.9%
O=C(/C=C/c1cccnc1)NCCCCC1CCN(C(=O)c2ccccc2)CC1 + C=CCn1c(=O)c2cnc(Nc3ccc(N4CCN(C)CC4)cc3)nc2n1-c1cccc(C(C)(C)O)n1 [MK1775] (first compound 0.05 µM, partner dose 0.1 µM)	54.4%	26.4%	99.9%	71.6%	89.2%	61.6%	77.1%	72.6%	53.7%	111%
CC1(C)CCC(c2ccc(Cl)cc2)=C(CN2CCN(c3ccc(C(=O)NS(=O)(=O)c4ccc(N[C@H](CCN5CCOCC5)CSc5ccccc5)c(S(=O)(=O)C(F)(F)F)c4)cc3)CC2)C1 + OCc1c[nH]c2ccccc12 [Indole-3-carbinol] (first compound 2 µM, partner dose 4 µM)	69%	71.2%	63.4%	96%	46.8%	60.6%	95.2%	71.7%	4.03%	78.2%
Cc1ccc(Nc2nccc(N(C)c3ccc4c(C)n(C)nc4c3)n2)cc1S(N)(=O)=O [Pazopanib] + CN1CCN(c2ccc3nc(-c4c(N)c5c(F)cccc5[nH]c4=O)[nH]c3c2)CC1 [Dovitinib] (first compound 2 µM, partner dose 0.5 µM)	63.6%	65.2%	75.2%	58.2%	79.4%	50.8%	51.8%	69%	51.2%	74.4%
CC1(C)CCC(c2ccc(Cl)cc2)=C(CN2CCN(c3ccc(C(=O)NS(=O)(=O)c4ccc(N[C@H](CCN5CCOCC5)CSc5ccccc5)c(S(=O)(=O)C(F)(F)F)c4)cc3)CC2)C1 + C=CCNC1=C2C[C@@H](C)C[C@H](OC)[C@H](O)[C@@H](C)/C=C(\C)[C@H](OC(N)=O)[C@@H](OC)/C=C\C=C(/C)C(=O)NC(=CC1=O)C2=O [Tanespimycin] (first compound 2 µM, partner dose 0.01 µM)	54.9%	77.1%	54.4%	71.1%	32.1%	48.7%	25%	62.4%	6.35%	67.4%
Cc1ccc(Nc2nccc(N(C)c3ccc4c(C)n(C)nc4c3)n2)cc1S(N)(=O)=O [Pazopanib] + C[C@@H](N)c1ccc(C(=O)Nc2ccnc3[nH]ccc23)cc1 [RKI983] (first compound 2 µM, partner dose 2 µM)	73.7%	99.6%	61.3%	52.9%	39.1%	59.1%	104%	42.5%	85.5%	101%
Cc1ccc(Nc2nccc(N(C)c3ccc4c(C)n(C)nc4c3)n2)cc1S(N)(=O)=O [Pazopanib] + COc1cc(Nc2ncc(F)c(Nc3ccc4c(n3)NC(=O)C(C)(C)O4)n2)cc(OC)c1OC [Tamatinib] (first compound 2 µM, partner dose 2 µM)	50.1%	75.5%	84.8%	32.1%	75.2%	53.8%	69.4%	76.4%	25.6%	70.2%
O=C(/C=C/c1cccnc1)NCCCCC1CCN(C(=O)c2ccccc2)CC1 + COCC[n+]1c2c(n(Cc3cnccn3)c1C)C(=O)c1ccccc1C2=O [YM155] (first compound 0.05 µM, partner dose 0.002 µM)	47%	12.1%	60.6%	40.5%	27.1%	47.2%	78.9%	70%	82.8%	43.9%
